Reference: the supplement of paper PMC11876631
± gives the standard deviation of the averaged measurements. Laboratory Escherichia coli strains with one amino-acid change in an essential protein, pooled on minimal glucose agar with carbenicillin or gentamicin at twice the control MIC (plus kanamycin and chloramphenicol for the plasmids), 48 h. Fold change of barcode share against drug-free plates; higher = less susceptible. Active = above 20 in both replicates (the paper's putatively resistant). '<' = one read or none on drug, '>' = one read or none on a drug-free plate. Shares are relative, so most strains fall below 1 when a few take over. Listed are strains with at least 15 reads on both drug-free plates, and hits; most hits rest on fewer reference reads. Replicate rank correlation about 0.5. Edits are read from barcodes.

B1: metG; numbered along this chain (parent)
chain: MTQVAKKILVTCALPYANGSIHLGHMLEHIQADVWVRYQRMRGHEVNFICADDAHGTPIMLKAQQLGITPEQMIGEMSQEHQTDFAGFNISYDNYHSTHSEENRQLSELIYSRLKENGFIKNRTISQLYDPEKGMFLPDRFVKGTCPKCKSPDQYGDNCEVCGATYSPTELIEPKSVVSGATPVMRDSEHFFFDLPSFSEMLQAWTRSGALQEQVANKMQEWFESGLQQWDISRDAPYFGFEIPNAPGKYFYVWLDAPIGYMGSFKNLCDKRGDSVSFDEYWKKDSTAELYHFIGKDIVYFHSLFWPAMLEGSNFRKPSNLFVHGYVTVNGAKMSKSRGTFIKASTWLNHFDADSLRYYYTAKLSSRIDDIDLNLEDFVQRVNADIVNKVVNLASRNAGFINKRFDGVLASELADPQLYKTFTDAAEVIGEAWESREFGKAVREIMALADLANRYVDEQAPWVVAKQEGRDADLQAICSMGINLFRVLMTYLKPVLPKLTERAEAFLNTELTWDGIQQPLLGHKVNPFKALYNRIDMRQVEALVEASKEEVKAAAAPVTGPLADDPIQETITFDDFAKVDLRVALIENAEFVEGSDKLLRLTLDLGGEKRNVFSGIRSAYPDPQALIGRHTIMVANLAPRKMRFGISEGMVMAAGPGGKDIFLLSPDAGAKPGHQVK
B2: glnA; numbered along this chain (parent)
chain: MSAEHVLTMLNEHEVKFVDLRFTDTKGKEQHVTIPAHQVNAEFFEEGKMFDGSSIGGWKGINESDMVLMPDASTAVIDPFFADSTLIIRCDILEPGTLQGYDRDPRSIAKRAEDYLRSTGIADTVLFGPEPEFFLFDDIRFGSSISGSHVAIDDIEGAWNSSTQYEGGNKGHRPAVKGGYFPVPPVDSAQDIRSEMCLVMEQMGLVVEAHHHEVATAGQNEVATRFNTMTKKADEIQIYKYVVHNVAHRFGKTATFMPKPMFGDNGSGMHCHMSLSKNGVNLFAGDKYAGLSEQALYYIGGVIKHAKAINALANPTTNSYKRLVPGYEAPVMLAYSARNRSASIRIPVVSSPKARRIEVRFPDPAANPYLCFAALLMAGLDGIKNKIHPGEAMDKNLYDLPPEEAKEIPQVAGSLEEALNELDLDREFLKAGGVFTDEAIDAYIALRREEDDRVRMTPHPVEFELYYSV

Variants of: B1
Test: barcode share on antibiotic plates over drug-free plates; higher = less susceptible
Conditions: with Escherichia coli (laboratory strain); antibiotic: carbenicillin; 2× MIC (3.1 µg/mL)
Method: (§1)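 A pool of E. coli strains, each edited to carry one amino-acid change in an essential protein, was grown for 48 h on minimal glucose agar with or without antibiotic; strain barcodes were sequenced; mean of two replicates.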

Variant	fold change of barcode share
F485A	0.246 ± 0.077
F485D	0.554 ± 0.37
F485Q	0.361 ± 0.064
F485W	0.126 ± 0.028
L496D	0.3 ± 0.025
L496Q	0.324 ± 0.2
L496W	0.416 ± 0.14

Same assay, conditions: with Escherichia coli (laboratory strain); antibiotic: gentamicin; 2× MIC (MIC 0.45 µg/mL)

Variant	fold change of barcode share
F485A	< 0.00609
F485D	< 0.00308
F485Q	< 0.00498
F485W	< 0.00615
L496D	< 0.0141
L496Q	< 0.0105
L496W	< 0.0138

Variants of: B2
Test: as above
Conditions: with Escherichia coli (laboratory strain); antibiotic: carbenicillin; 2× MIC (3.1 µg/mL)
Method: as §1

Variant	fold change of barcode share
F136W	0.2905 ± 0.00044
L135Q	0.328 ± 0.063
I87A	0.697 ± 0.065
M332Q	0.3 ± 0.012
M332P	0.49 ± 0.014
M332A	0.367 ± 0.08
L376Q	0.445 ± 0.15
M377Q	0.285 ± 0.084
M332W	0.433 ± 0.07
L375D	0.353 ± 0.21
L376W	0.866 ± 0.3
I87D	0.609 ± 0.048
L375W	0.227 ± 0.067
M377A	0.629 ± 0.23
L135W	0.439 ± 0.092
M332D	0.496 ± 0.22
L376A	0.449 ± 0.0095
I87Q	0.512 ± 0.057
L375P	0.292 ± 0.079
L375A	0.511 ± 0.038
F136Q	2.12 ± 1.8
L135A	0.577 ± 0.1

Same assay, conditions: with Escherichia coli (laboratory strain); antibiotic: gentamicin; 2× MIC (MIC 0.45 µg/mL)

Variant	fold change of barcode share
F136W	0.0113 ± 0.0034
L135Q	< 0.0112
I87A	0.0127 ± 0.01
M332Q	0.00483 ± 0.0021
M332P	0.118 ± 0.16
M332A	0.0156 ± 0.019
L376Q	0.114 ± 0.16
M377Q	< 0.00828
M332W	0.00317 ± 0.0025
L375D	0.316 ± 0.44
L376W	< 0.0154
I87D	< 0.00962
L375W	< 0.00989
M377A	< 0.0154
L135W	0.0186 ± 0.014
M332D	< 0.00481
L376A	< 0.00445
I87Q	0.00943 ± 0.0036
L375P	< 0.0113
L135A	< 0.0143
